Experimental data taken from publication PMC2605406 (Science (New York, N.Y.), 2008).

Target: QseC (Escherichia coli, UniProt Q8X524)
Assay: inhibition of tritiated norepinephrine binding, QseC in liposomes
Conditions: against 5 uM tritiated NE

Chain of UniProt Q8X524 (Q8X524 whole entry, looked up): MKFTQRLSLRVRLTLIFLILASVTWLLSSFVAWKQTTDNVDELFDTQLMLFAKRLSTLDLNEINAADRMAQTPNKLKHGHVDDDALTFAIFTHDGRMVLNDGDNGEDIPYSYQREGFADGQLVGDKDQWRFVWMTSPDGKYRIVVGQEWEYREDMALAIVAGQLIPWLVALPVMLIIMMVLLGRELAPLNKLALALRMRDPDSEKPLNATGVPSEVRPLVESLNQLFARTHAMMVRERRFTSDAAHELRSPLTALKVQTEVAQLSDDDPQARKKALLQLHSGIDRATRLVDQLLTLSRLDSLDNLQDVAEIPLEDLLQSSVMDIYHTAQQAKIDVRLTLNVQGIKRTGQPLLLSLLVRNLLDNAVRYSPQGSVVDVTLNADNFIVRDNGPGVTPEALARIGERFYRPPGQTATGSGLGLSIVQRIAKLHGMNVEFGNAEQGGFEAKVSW

Cc1ccc(N(CC2=NCCN2)c2cccc(O)c2)cc1 [phentolamine]
inhibition of tritiated norepinephrine binding, QseC in liposomes: phentolamine (an alpha-adrenergic antagonist) antagonizes this binding to block QseC autophosphorylation
